# Measurements: PubChem BioAssay AID624171 (National Center for Advancing Translational Sciences (NCATS), 2012)
# Out of some 410,000 compounds screened, about 1,200 (0.29%) were called active. The shares of active, inactive and inconclusive entries below differ from those in the screen. Calls follow the shape of the dose curve; as a rule, active = well fitted activation curve with a large enough effect; inconclusive = small, poorly fitted or top-dose-only effect; inactive = flat fitted curve, though single readings scatter. A potency beside an inconclusive call is a rough fit, not a confirmed value.
# Assay: qHTS of Nrf2 Activators; also: nearly all actives have a fitted effect of over 65% in size; as to activation: % of control where 0% means no effect
# Settings: AREc32 ARE-luciferase reporter (MCF7-derived line), luminescence, 24 h; activation: at 46.1 µM (top of the series)
# In short: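 For detection, Steady-Glo was added and plates sat 30 min at RT; before that, AREc32_Fluc cells grown overnight in OPTI-MEM/5% FBS had been treated with 23 nL compound for 24 hr at 37 deg C.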
# Potency is read from the fitted curve at half-maximal effect; tags tell the direction and shape of the fitted curve.
Structure (SMILES),Potency,activation
COc1cccc(Nc2nc3ccccc3c3nncn23)c1,"inconclusive: 11.2 µM [activator, partial curve]",
O=C(COC(=O)/C=C/c1cccc(C(F)(F)F)c1)Nc1ccc(Cl)cn1,"inconclusive: 11.2 µM [activator, partial curve]",
OCC1(Cc2ccccc2)CCCN(Cc2ccc3c(c2)OCCO3)C1 (stereo unspecified),,inactive: -0.473%
COc1ccc(C2C=CC(=O)CC2)c(OC)c1 (stereo unspecified),"inconclusive: 20 µM [activator, single point]",
O=C1C(=Cc2ccccc2Cl)CCc2ccccc21,"inconclusive: 7.94 µM [activator, partial curve, poor fit]",
CCc1nnc(SCC(=O)N(CC)c2ccccc2)c2cc3oc(C)cc3n12,active: 5.62 µM,
CCCC(=O)OCCNc1cc(SCc2ccco2)c2nonc2c1[N+](=O)[O-],"inconclusive: 35.5 µM [activator, single point]",
O=C(Nc1ccc(NC(=O)c2ccc([N+](=O)[O-])o2)cc1Cl)c1ccco1,"inconclusive: 2.82 µM [activator, full curve, poor fit]",
COc1ccc(C2CC(c3c(-c4ccccc4)c4cc(Cl)ccc4[nH]c3=O)=NN2S(C)(=O)=O)cc1 (stereo unspecified),,inactive: 4.84%
CCCN1CCc2c(sc(NC(=O)C3CCN(S(=O)(=O)c4cccs4)CC3)c2C(N)=O)C1,,inactive: -0.738%
O=[N+]([O-])c1cccc2ccc(/C=C/c3cccc(Br)c3)nc12,"inconclusive: 3.98 µM [activator, partial curve, poor fit]",
COc1cccc(C=CC(=O)C=CC=Cc2ccccc2)c1,"inconclusive: 31.6 µM [activator, single point]",
COc1cccc(NC(=O)Cn2c(-c3cncs3)nc3ccccc32)c1,,inactive: -0.457%
N/C(=N\OC(=O)/C=C/c1ccccc1)c1ccccc1,active: 11.2 µM,
Cc1cccc(NNC(=S)Nc2ccccc2)c1,"inconclusive: 12.6 µM [activator, partial curve, poor fit]",
c1ccc(C2=NC(c3ccccc3)CC2)cc1 (stereo unspecified),"inconclusive: 14.1 µM [activator, single point]",
C=CCSc1nnc2c(n1)OC(C)=Nc1ccc(Br)cc1-2,,inactive: 19.6%
O=C1NC(=Nc2ccc(O)cc2)S/C1=C\C=C\c1ccco1,"inconclusive: 0.794 µM [activator, full curve, poor fit]",
CCN(CC)S(=O)(=O)c1ccc2c(c1)c(=O)c(C(=O)NCc1ccccc1Cl)cn2C,,inactive: 0.0977%
CCN1C(=O)C(O)(CC(=O)/C=C/C=C/c2ccccc2)c2ccccc21 (stereo unspecified),"inconclusive: 35.5 µM [activator, partial curve, poor fit]",
O=C(Nc1cccc(F)c1)c1c(F)c(F)c(F)c(F)c1F,"inconclusive: 17.8 µM [activator, single point]",
Cc1cc(C)n(-c2nnc(SCC(=O)NC3CCCC3)c3ccccc23)n1,,inactive: 0.259%
CC(=O)c1cc(NC(=O)c2cccc(C(F)(F)F)c2)c(=O)oc1C,"inconclusive: 28.2 µM [activator, single point]",
CCOC(=O)c1ccc(Nc2c(CC)c(C)nc3ncnn23)cc1,,inactive: -0.704%

Structure (SMILES),Potency,activation
CC(=O)N1CCN(C(=O)CN2C(=O)NC(C)(c3ccc4ccccc4c3)C2=O)CC1 (stereo unspecified),,inactive: -0.066%
Cc1ccc(C)c(N2CCN(C(=O)c3ccc4c(=O)n(CCc5ccccc5)c(=O)[nH]c4c3)CC2)c1,,inactive: -0.696%
O=C(COC(=O)c1ccccc1C(=O)c1ccccc1)Nc1cccc([N+](=O)[O-])c1,"inconclusive: 12.6 µM [activator, single point]",
COc1ccc(C(=O)C(CN2CCOCC2)c2ccccc2)cc1F (stereo unspecified),"inconclusive: 3.55 µM [activator, partial curve, poor fit]",
CCOC(=O)N1CCC(NS(=O)(=O)c2ccc(NC(C)=O)c(Cl)c2)CC1,,inactive: -0.689%
N#CC(c1ccccc1O)N1N=C(c2ccccc2)CC1c1ccccc1 (stereo unspecified),"inconclusive: 12.6 µM [activator, partial curve]",
Cc1ccc(C)c(S(=O)(=O)N2CCN(C(=O)/C=C/c3ccco3)CC2)c1,"inconclusive: 35.5 µM [activator, single point]",
N/C(=N\OC(=O)c1ccccc1Cl)c1ccc(Cl)cc1,"inconclusive: 11.2 µM [activator, partial curve, poor fit]",
Nc1c(C(=O)C2CC2)sc2nc(-c3cccs3)cc(C(F)(F)F)c12,"inconclusive: 1.41 µM [activator, full curve]",
O=C(NCc1cccnc1)/C(=C/c1ccc(-c2ccc(Cl)cc2)o1)S(=O)(=O)c1ccccc1,"inconclusive: 5.62 µM [activator, single point]",
CN1CCc2c(sc(NC(=O)c3ccc(S(=O)(=O)N4CCCCCC4)cc3)c2C(N)=O)C1,"inconclusive: 20 µM [activator, single point]",
c1ccc(-c2nnc(-c3ccccc3)nn2)cc1,"inconclusive: 2.82 µM [activator, partial curve, poor fit]",
COc1cccc2c1cc1c(=O)n(CC(=O)N3CCN(c4ccc(F)cc4)CC3)nc(C)n12,,inactive: -0.0304%
Nc1ccc2c(c1)C/C(=C/c1ccco1)C2=O,"inconclusive: 12.6 µM [activator, partial curve, poor fit]",
O=C1c2cccc3c([N+](=O)[O-])ccc(c23)C(=O)N1O,active: 12.6 µM,
O=S(=O)(c1ccc(Oc2ccccc2)cc1)N1CCOCC1,,inactive: 0.25%
O=C(Nc1ccccn1)c1sc2cccc(F)c2c1Cl,"inconclusive: 3.98 µM [activator, partial curve, poor fit]",
Cc1ccc(CN2CCN(Cc3cccc(-n4cccn4)c3)CC2CCO)cc1 (stereo unspecified),,inactive: -0.179%
O=C(OCC(=O)N1N=C(c2ccc(Cl)cc2)CC1c1ccco1)c1cncc(Br)c1 (stereo unspecified),"inconclusive: 15.8 µM [activator, single point]",
CN(C)NC1=CC(=[N+]2CCCC2)CC(C)(C)C1,,inactive: -0.041%
CN(C(=O)/C=C/c1ccc([N+](=O)[O-])s1)c1ccccc1,"inconclusive: 3.55 µM [activator, partial curve, poor fit]",
O=[N+]([O-])c1ccccc1/C=C/c1ccc2ccccc2n1,"inconclusive: 2.51 µM [activator, full curve, poor fit]",
Cc1nn(-c2ccc3ccccc3c2)c(=O)c2ccccc12,"inconclusive: 3.16 µM [activator, full curve]",
O=C(Nc1cccc([N+](=O)[O-])c1)Nc1cccs1,active: 7.08 µM,

Structure (SMILES),Potency,activation
CCOC(=O)c1sc2nc(C)nc(Nc3ccccc3)c2c1C,,inactive: 12.2%
Cc1cc(C)cc(NS(=O)(=O)c2cnc(Cl)c(Cl)c2)c1,"inconclusive: 22.4 µM [activator, single point]",
Cc1c(C(=O)Nc2ccccn2)oc2c(Cl)cccc12,"inconclusive: 15.8 µM [activator, partial curve, poor fit]",
Cc1ccc(C)c(NC(=O)COC(=O)c2cc(=O)c3ccccc3o2)c1,"inconclusive: 3.16 µM [activator, full curve, poor fit]",
COc1ccc(C(C[N+](=O)[O-])c2c(-c3ccccc3)cc3ccccn23)c(OC)c1 (stereo unspecified),,inactive: 14.9%
COc1ccc(Oc2coc3cc(OC(=O)/C=C/c4ccccc4)ccc3c2=O)cc1,,inactive: -0.674%
O=C(OCC(=O)N1CCCc2ccccc21)c1cnc(Cl)c(Cl)c1,"inconclusive: 31.6 µM [activator, single point]",
O=[N+]([O-])c1cc(S(=O)(=O)Nc2ccccc2)ccc1NCc1ccccc1,,inactive: 2.04%
O=C1C(=C(c2ccccc2)c2ccccc2)Nc2ccccc21,active: 12.6 µM,
COc1ccc(C=C2CS(=O)(=O)CC(=Cc3ccc(OC)cc3)C2=O)cc1,"inconclusive: 3.55 µM [activator, partial curve, poor fit]",
O=C(CN1C(=O)S/C(=C\C=C\c2ccccc2)C1=O)NC1CCS(=O)(=O)C1 (stereo unspecified),"inconclusive: 17.8 µM [activator, single point]",
Cc1cccc(C)c1NC(=O)COC(=O)C1Cc2ccccc2CN1C(=O)c1ccccc1 (stereo unspecified),,inactive: -0.698%
CCOC(=O)c1cc(-c2cccs2)[nH]n1,"inconclusive: 35.5 µM [activator, partial curve, poor fit]",
N#CC1=C(N)C(C#N)(C#N)C(c2cccnc2)C2CN(C(=O)OCc3ccccc3)CC=C12 (stereo unspecified),,inactive: 19.7%
CCOC(=O)c1nnn(-c2nn3nnnc3c3ccccc23)c1C,"inconclusive: 15.8 µM [activator, single point]",
COc1ccc(CCNC(=O)CCc2c(C)nc3c4cccnc4nn3c2C)cc1OC,,inactive: -0.269%
CC(C)Oc1ccc(C(=O)Nc2ccc3c(c2)n(C)c(=O)n3C)cc1,"inconclusive: 35.5 µM [activator, partial curve, poor fit]",
CCCN(CC(=O)Nc1cc(Cl)ccc1Cl)C(=O)/C=C/c1ccco1,active: 11.2 µM,
O=C(Nc1ccc(F)cc1F)c1csc(-c2cccs2)n1,active: 10 µM,
COc1ccccc1C(=O)COC(=O)c1nc(Cl)ccc1Cl,"inconclusive: 12.6 µM [activator, partial curve, poor fit]",
COc1cccc(C2C(C#N)=C(N)OC3=C2C(=O)CCC3)c1OC(=O)c1ccco1 (stereo unspecified),"inconclusive: 35.5 µM [activator, partial curve, poor fit]",
O=C1Nc2ccccc2/C1=C/c1ccccc1Cl,"inconclusive: 2.82 µM [activator, full curve, poor fit]",
COc1ccccc1N(C(=O)CCl)c1cn(C(C)=O)c2ccccc12,"inconclusive: 3.16 µM [activator, single point]",
